Measurements published in patent publication US20230051266A1 (ABL BIO, published 2023).

Experiments:
[1] = biological target: T1, human BCMA on cells (CHOK1-hBCMA; H929 endogenous BCMA) (human, UniProt Q02223 1-184); experiment: FACS, 100 nM antibody, CHOK1-hBCMA cells
T1 construct: Cell-surface BCMA in FACS; also called mammalian expressed BCMA; native antigen
T1 sequence: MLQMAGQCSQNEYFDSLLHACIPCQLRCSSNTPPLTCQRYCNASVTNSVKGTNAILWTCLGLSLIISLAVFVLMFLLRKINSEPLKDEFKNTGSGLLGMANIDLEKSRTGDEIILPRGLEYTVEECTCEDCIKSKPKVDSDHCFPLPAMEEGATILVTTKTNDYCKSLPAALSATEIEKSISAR
Protocol: (§1) To evaluate the antigen binding property, the antibody candidates were analyzed for their bindings to BCMA expressed cells by FACS. Briefly, CHOK1 expressing human BCMA (CHOK1-hBCMA) or H929 expressing endogenous BCMA cells were treated with the 100 nM of indicated antibodies at 4° C. for 1 hr. CHOK1 cells were used for BCMA-negative control. After washing by FACS buffer (1% (w/v) BSA in PBS), cells were incubated with the FTTC-anti-human IgG antibody at 4° C. for 1 hr and then subjected to FACS analysis. As shown in FIGS. 2d-2f, the anti-BCMAx4-1BB antibodies bind to BCMA expressed CHOK1-hBCMA and H929 cell lines but not BCMA negative CHOK1.

[2] = biological target: T1, human BCMA on cells (CHOK1-hBCMA; H929 …); experiment: FACS, 100 nM antibody, H929 cells
Protocol: as §1

quantified FACS signal (name not given) [1]: 662 | quantified FACS signal (name not given) [2]: 45.8
B1: B58(NA)x41B01 (bispecific antibody, human IgG1, lambda)
heavy: EVQLLESGGGLVQPGGSLRLSCAASGFTFSNYDMSWVRQAPGKGLEWVSWIYPSDSSIYYADSVKGRFTISRDNSKNTLYLQMNSLRAEDTAVYYCARGPFANKYRQFDYWGQGTLVTVSSASTKGPSVFPLAPSSKSTSGGTAALGCLVKDYFPEPVTVSWNSGALTSGVHTFPAVLQSSGLYSLSSVVTVPSSSLGTQTYICNVNHKPSNTKVDKKV[in this place human IgG1 Fc with changes]GGGGSGGGGSGGGGSQSVLTQPPSASGTPGRRVTISCSGSSSNIGNNYVTWYQQLPGTAPKLLIYADSHRPSGVPDRFSGSKSGTSASLAISGLRSEDEADYYCATWDYSLSGYVFGCGTKLTVLGGGGSGGGGSGGGGSGGGGSEVQLLESGGGLVQPGGSLRLSCAASGFTFSSYDMSWVRQAPGKCLEWVSWISYSGGSIYYADSVKGRFTISRDNSKNTLYLQMNSLRAEDTAVYYCARDGQRNSMREFDYWGQGTLVTVSS
light: QSVLTQPPSASGTPGQRVTISCSGSSSNIGSNSVSWYQQLPGTAPKLLIYADSKRPSGVPDRFSGSKSGTSASLAISGLRSEDEADYYCGSWDYSLSGYVFGGGTKLTVLGQPKAAPSVTLFPPSSEELQANKATLVCLISDFYPGAVTVAWKADSSPVKAGVETTTPSKQSNNKYAASSYLSLTPEQWKSHRSYSCQVTHEGSTVEKTVAPAECS
notes: IgG1 N297A-scFv; also called B58(NA) x41B01 (1A10)

quantified FACS signal (name not given) [1]: 644 | quantified FACS signal (name not given) [2]: 41.6
B2: B58(NA)x41B02 (bispecific antibody, human IgG1, lambda)
heavy: EVQLLESGGGLVQPGGSLRLSCAASGFTFSNYDMSWVRQAPGKGLEWVSWIYPSDSSIYYADSVKGRFTISRDNSKNTLYLQMNSLRAEDTAVYYCARGPFANKYRQFDYWGQGTLVTVSSASTKGPSVFPLAPSSKSTSGGTAALGCLVKDYFPEPVTVSWNSGALTSGVHTFPAVLQSSGLYSLSSVVTVPSSSLGTQTYICNVNHKPSNTKVDKKV[in this place human IgG1 Fc with changes]GGGGSGGGGSGGGGSQSVLTQPPSASGTPGRRVTISCSGSSSNIGNNYVTWYQQLPGTAPKLLIYADSHRPSGVPDRFSGSKSGTSASLAISGLRSEDEADYYCATWDYSLSGYVFGCGTKLTVLGGGGSGGGGSGGGGSGGGGSEVQLLESGGGLVQPGGSLRLSCAASGFTFSGYDMSWVRQAPGKCLEWVSVIYPDDGNTYYADSVKGRFTISRDNSKNTLYLQMNSLRAEDAAVYYCAKHGGQKPTTKSSSAYGMDGWGQGTLVTVSS
light: B1 light
notes: IgG1 N297A-scFv (VL-(G4S)4-VH); also called B58(NA) x41B02 (1A12)

quantified FACS signal (name not given) [1]: 652 | quantified FACS signal (name not given) [2]: 49.8
B3: B58(NA)xAB41 (bispecific antibody, human IgG1, lambda)
heavy: EVQLLESGGGLVQPGGSLRLSCAASGFTFSNYDMSWVRQAPGKGLEWVSWIYPSDSSIYYADSVKGRFTISRDNSKNTLYLQMNSLRAEDTAVYYCARGPFANKYRQFDYWGQGTLVTVSSASTKGPSVFPLAPSSKSTSGGTAALGCLVKDYFPEPVTVSWNSGALTSGVHTFPAVLQSSGLYSLSSVVTVPSSSLGTQTYICNVNHKPSNTKVDKKV[in this place human IgG1 Fc with changes]GGGGSGGGGSGGGGSDIVMTQSPAFLSVTPGEKVTITCRASQTISDYLHWYQQKPDQAPKLLIKYASQSISGIPSRFSGSGSGTDFTFTISSLEAEDAATYYCQDGHSFPPTFGCGTKLEIKRGGGGSGGGGSGGGGSGGGGSQVQLQQSGAEVIKPGASVKLSCKASGYTFSSYWMHWVRQAPGQCLEWIGEINPGNGHTNYNEKFKSRATLTGDTSTSTVYMELSSLRSEDTAVYYCARSFTTARAFAYWGQGTLVTVSS
light: B1 light
notes: IgG1 N297A-scFv (VL-(G4S)4-VH)

Each block holds one binder with its values, some of them ahead of it.
